Measured values published in the supplement of paper PMC8821664.
Counter-ions that a name gives are not always drawn. Some of the results follow. Most values come without repeats; read them as rough.

System: Beas-2B AQP5-HiBiT reporter cells
Assay: AQP5-HiBiT luminescence relative to vehicle (ratio to vehicle); higher = higher AQP5-HiBiT protein abundance
Conditions: 10 µM; 18 h
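Note: monoclonal Beas-2B line stably carrying CMV promoter-driven AQP5-HiBiT, 5,000 cells per well in 384-well plates, lytic HiBiT plus LgBiT NanoLuc luminescence, FDA-approved drug library screen.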

| SMILES | AQP5-HiBiT luminescence |
| --- | --- |
| CN1CCC(OC(c2ccccc2)c2ccccc2)CC1 [Diphenylpyraline hydrochloride] | 0.872 |
| COc1ccc(-c2ccc3cc(C(=O)O)ccc3c2)cc1C12CC3CC(CC(C3)C1)C2 [Adapalene] | 1.87 |
| Nc1ccc(S(=O)(=O)c2ccc(N)cc2)cc1 [Sulphadione] | 0.894 |
| O=C(O)c1cccnc1 [Nicotinic acid] | 0.719 |
| NCCC(O)(P(=O)(O)O)P(=O)(O)O [Pamidronate disodium salt] | 0.907 |
| C[C@@H]1C[C@H]2[C@@H]3CCC4=CC(=O)C=C[C@]4(C)[C@@]3(Cl)[C@@H](O)C[C@]2(C)[C@@]1(OC(=O)c1ccco1)C(=O)CCl [Mometasone furoate] | 3.6 |
| CN[C@H](CC(C)C)C(=O)N[C@H]1C(=O)N[C@@H](CC(N)=O)C(=O)N[C@H]2C(=O)N[C@H]3C(=O)N[C@H](C(=O)N[C@H](C(=O)O)c4cc(O)cc(O)c4-c4cc3ccc4O)[C@H](O)c3ccc(c(Cl)c3)Oc3cc2cc(c3O[C@@H]2O[C@H](CO)[C@@H](O)[C@H](O)[C@H]2O[C@H]2C[C@](C)(N)[C@H](O)[C@H](C)O2)Oc2ccc(cc2Cl)[C@H]1O [Vancomycin hydrochloride] | 0.978 |
| Nc1nc(N)c2nc(-c3ccccc3)c(N)nc2n1 [Ademine] | 0.826 |
| CC(C)(O)c1ccccc1CC[C@@H](SCC1(CC(=O)O)CC1)c1cccc(/C=C/c2ccc3ccc(Cl)cc3n2)c1 [Montelukast sodium] | 0.861 |
| CO[C@@]1(NC(=O)Cc2cccs2)C(=O)N2C(C(=O)O)=C(COC(N)=O)CS[C@@H]21 [Cefoxitin sodium] | 0.97 |
| CC(C)[C@H](N)C(=O)OCCOCn1cnc2c(=O)nc(N)[nH]c21 [Valacyclovir hydrochloride] | 0.755 |
| CC(=O)OCC(COC(C)=O)OC(C)=O [Triacetin] | 0.935 |
| O=c1n(CCCN2CCN(c3cccc(Cl)c3)CC2)nc2ccccn12 [Trazodone hydrochloride] | 1.38 |
| Nc1nc2[nH]cc(CCc3ccc(C(=O)O)cc3)c2c(=O)[nH]1 [Pemetrexed acid] | 0.852 |
| C[C@]12C=CC(=O)C=C1CC[C@@H]1[C@@H]2[C@@H](O)C[C@@]2(C)[C@H]1CC[C@]2(O)C(=O)CO [Prednisolone] | 0.888 |
| CC(=O)Nc1c(I)c(NC(C)=O)c(I)c(C(=O)O)c1I [Diatrizoate sodium] | 1.29 |
| COc1c(C)c2c(c(O)c1C/C=C(\C)CCC(=O)OCCN1CCOCC1)C(=O)OC2 [Mycophenolate mofetil] | 0.76 |
| O=C1Nc2ccc(Cl)cc2[C@@](C#CC2CC2)(C(F)(F)F)O1 [Efavirenz] | 0.599 |
| C#CCN(C)Cc1ccccc1 [Pargyline hydrochloride] | 1.05 |
| O=C(N[C@H](CO)[C@H](O)c1ccc([N+](=O)[O-])cc1)C(Cl)Cl [Chloramphenicol] | 1.18 |

| SMILES | AQP5-HiBiT luminescence |
| --- | --- |
| CCCCc1ncc(/C=C(\Cc2cccs2)C(=O)O)n1Cc1ccc(C(=O)O)cc1 [Eprosartan Mesylate] | 1.37 |
| CN(C)CCC=C1c2ccccc2C=Cc2ccccc21 [Cyclobenzaprine hydrochloride] | 1.33 |
| COC(=O)[C@@H]1CC2=CC(=O)CC[C@]2(C)[C@@]23O[C@@H]2C[C@@]2(C)[C@@H](CC[C@@]24CCC(=O)O4)[C@H]13 [Eplerenone] | 0.767 |
| C[C@]12CCC(=O)C=C1CC[C@@H]1[C@@H]2C(=O)C[C@@]2(C)[C@H]1CC[C@]2(O)C(=O)CO [Cortisone] | 0.995 |
| Oc1c(Cl)cc(Cl)c2cccnc12 [Capitrol] | 0.83 |
| CCc1c2c(nc3ccc(OC(=O)N4CCC(N5CCCCC5)CC4)cc13)-c1cc3c(c(=O)n1C2)COC(=O)[C@]3(O)CC [Irinotecan Hydrochloride] | 0.701 |
| Cc1ccsc1C(=CCCN1CCC[C@@H](C(=O)O)C1)c1sccc1C [Tiagabine] | 0.717 |
| CC(C[N+](C)(C)C)OC(N)=O (stereo not given) [Bethanechol chloride] | 0.858 |
| OC[C@@H](O)[C@@H](O)[C@H](O)[C@@H](O)CO [D-Sorbitol] | 0.994 |
| CC1(C)[C@H](C(=O)O)N2C(=O)C[C@H]2S1(=O)=O [Sulbactam] | 0.975 |
| CNCC[C@@H](Oc1ccccc1C)c1ccccc1 [Atomoxetine hydrochloride] | 0.756 |
| COc1ccccc1OCC(O)CN1CCN(CC(=O)Nc2c(C)cccc2C)CC1 (stereo not given) [Ranolazine 2hydrochloride] | 1.32 |
| O=C(CCCN1CCC(O)(c2ccc(Cl)cc2)CC1)c1ccc(F)cc1 [Haloperidol] | 1.1 |
| CCCS(=O)(=O)Nc1ccc(F)c(C(=O)c2c[nH]c3ncc(-c4ccc(Cl)cc4)cc23)c1F [Vemurafenib (PLX4032, RG7204)] | 0.277 |
| CCN(CC)CCCC(C)Nc1ccnc2cc(Cl)ccc12 (stereo not given) [Chloroquine diphosphate] | 1.71 |
| COc1cc(N)c(Cl)cc1C(=O)NC1CCN(CCCOc2ccc(F)cc2)CC1OC (stereo not given) [Cisapride] | 1.18 |
| CCS(=O)(=O)CCn1c([N+](=O)[O-])cnc1C [Tinidazole] | 0.793 |
| N[C@@H]1CONC1=O [D-Cycloserine] | 1.14 |
| COc1ccc2[nH]c([S+]([O-])Cc3ncc(C)c(OC)c3C)nc2c1 (stereo not given) [Omeprazole] | 0.841 |
| CN(C)CCC=C1c2ccccc2COc2ccccc21 [Doxepin hydrochloride] | 1.57 |
